{"source": "PubChem BioAssay (NCI)", "note": "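Compound exposure: 48 hours, 5 concentrations, 96-well plates. At the GI50, growth is halved. The concentration for full growth arrest is given as TGI.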", "data": [{"test_system": "NCI-H322M lung", "experiment": "NCI tumour cell line growth inhibition, 48 h", "units": {"TGI": "µM", "GI50": "µM"}, "values": [{"smiles": "Nc1nc2c3nc(Nc4ccccc4)sc3nc(=S)n2c2sc(Nc3ccccc3)nc12", "TGI": "> 100"}, {"smiles": "CC(=O)C(=[N+]=[N-])C(=O)N1CCOC1=O", "TGI": "> 10"}, {"smiles": "O=c1[nH]c2ccccc2c2ccccc12", "GI50": "> 100", "TGI": "> 100"}, {"smiles": "CCCCCCCCCCCCOC1C(CNC(=O)C2OC3OC(C)(C)OC3C2NC(=O)Nc2ccc(CC(=O)OC)cc2)OC2OC(C)(C)OC21", "note": "(configuration not stated)", "GI50": "> 100", "TGI": "> 100"}, {"smiles": "Cc1cn([C@@H]2C[C@@H]2CO)c(=O)[nH]c1=O", "TGI": "> 100"}, {"smiles": "CCN1C/C(=C\\c2cc(OC)c(OC)cc2OC)C(=O)/C(=C/c2cc(OC)c(OC)cc2OC)C1", "GI50": 4.11, "TGI": 16.5}, {"smiles": "O=C(Oc1cccc2cccnc12)c1cc2c(cc1Cl)SC(N(c1ccc(F)cc1)S(=O)(=O)c1ccc(Br)s1)=NS2(=O)=O", "GI50": 41.2, "TGI": "> 100"}, {"smiles": "COc1ccc(/C=C/C(=O)c2cc(OC)c(OC)c(OC)c2)cc1OCC(=O)Nc1nc2ccc(OC(F)(F)F)cc2s1", "GI50": 2.77, "TGI": 13}, {"smiles": "CC(=O)O[C@H]1C(=O)[C@@]2(C)C(C(OC(=O)c3ccccc3)[C@]3(O)C[C@H](OC(=O)C(OC(=O)CCCC(=O)NCCCN(C)C)C(NC(=O)c4ccccc4)c4ccccc4)C(C)=C1C3(C)C)C1(OC(C)=O)COC1C[C@@H]2O", "note": "(some centres not stated)", "TGI": "> 86.8"}, {"smiles": "N#Cc1cccc2c1Nc1ccccc1S2", "TGI": "> 100"}, {"smiles": "CN1C(=O)CCC1(O)C1C=CC=CC1", "note": "(configuration not stated)", "TGI": "> 100"}, {"smiles": "CC1=CC(=O)C2=C(C)CCC3C(C)C(=O)OC3C12", "note": "(configuration not stated)", "TGI": "> 100"}, {"smiles": "CC1(C)O[C@@H]([C@H](O)CO)[C@H](O)[C@@H](C2SCCCS2)O1", "TGI": "> 100"}, {"smiles": "O=c1cc(N=Nc2ccc(Br)cc2)[nH]c(=S)[nH]1", "TGI": "> 100"}, {"smiles": "O=Nc1ccc(O)c(=O)cc1", "GI50": 9.58, "TGI": 32.9}, {"smiles": "COc1ccccc1NC(=S)NN=C(C)c1cccc(C(C)=NNC(=S)Nc2ccccc2OC)n1", "TGI": "> 100"}, {"smiles": "CC1=CC(=O)CC(C)(C)C1/C=C/C(C)=C/C=C/C(C)=C/C=C/C=C(C)/C=C/C=C(C)/C=C/C1C(C)=CC(=O)CC1(C)C", "note": "(configuration not stated)", "TGI": "> 100"}, {"smiles": "Cc1cc(O)c(=O)cc2c1C[C@H]1CC(C)(C)/C=C/C[C@]3(C)Oc4cc(=O)c(O)cc(C)c4C[C@H]3C[C@H](O)[C@@]1(C)O2", "GI50": 0.0326, "TGI": "> 100"}, {"smiles": "Cc1ccn2c(=O)cc(CN3CCOCC3)nc2c1", "TGI": "> 100"}, {"smiles": "N#Cc1c(-c2ccc(Cl)c(Cl)c2)c(-c2ccc(Cl)c(Cl)c2)nn(CC(=O)O)c1=O", "TGI": "> 100"}, {"smiles": "Fc1cccc(COc2ccc(Nc3ncnc4sc(-c5cccs5)cc34)cc2Cl)c1", "GI50": 5.97, "TGI": 18.1}, {"smiles": "CC(=O)c1ccc2c(c1)c1cc(C(C)=O)ccc1n2CCNC(C)C", "GI50": 0.412, "TGI": 8.42}, {"smiles": "N#Cc1nc(CCN2C(=O)c3ccccc3C2=O)oc1N", "TGI": "> 100"}, {"smiles": "O=C(NC1(c2cc3ccccc3s2)CCCCC1)C1CCC1", "TGI": "> 100"}, {"smiles": "c1ccc([P+](CCSCCSCC[P+](c2ccccc2)(c2ccccc2)c2ccccc2)(c2ccccc2)c2ccccc2)cc1", "TGI": "> 100"}, {"smiles": "COC(=O)C(NC(=O)C(CC(=O)OC(C)(C)C)NC(=O)OC(C)(C)C)C(O)c1ccccc1", "note": "(configuration not stated)", "TGI": "> 100"}, {"smiles": "CNNC1=NS(=O)(=O)c2cc(C#N)c(Cl)cc2S1", "TGI": "> 10"}, {"smiles": "COc1ccc2nc3c(C(=O)NCCN(C)C)cccc3cc2c1", "TGI": 6.5}, {"smiles": "O=c1[nH]c(Nc2ccc(Cl)c(C(F)(F)F)c2)nc2nc[nH]c12", "TGI": "> 100"}, {"smiles": "Fc1cc2[nH]ncc2c2c3c(c(-c4cn[nH]c4C(F)(F)F)nc12)CCCC3", "GI50": 2.14, "TGI": 8}, {"smiles": "COc1ccc(NC(=O)C(=O)c2c(O)c3ccc(O)cc3oc2=O)c([N+](=O)[O-])c1", "TGI": "> 100"}, {"smiles": "O=c1c2cc(I)ccc2nc(SCc2nncs2)n1Cc1ccccc1", "TGI": "> 100"}, {"smiles": "CCOC(=O)c1nc2ccc(C(F)(F)F)cc2nc1NCc1ccc(OC)cc1", "TGI": "> 100"}, {"smiles": "CCN(Cc1ccc(C)cc1)c1ccc(CO)c(Cl)c1", "GI50": 11.6, "TGI": 25.1}, {"smiles": "CCOC(=O)/C(=C/N1CCN(C(=O)c2ccco2)C1=S)C(=O)c1ccccc1", "GI50": 14.2, "TGI": "> 50"}, {"smiles": "CN(C)c1ccc(C=Nc2ccc(Oc3ccc(Cl)cc3)c(Cl)c2)cc1", "TGI": 53.1}, {"smiles": "CC(C)(C)c1ccc(S(=O)(=O)Oc2ccc3c4c(c(=O)oc3c2)CCCCC4)cc1", "GI50": 40.5, "TGI": "> 100"}, {"smiles": "COc1ccc(C2CC(c3cccc(Nc4ccnc5cc(Cl)ccc45)c3)=NN2C=O)cc1", "note": "(configuration not stated)", "GI50": "> 100", "TGI": "> 100"}, {"smiles": "NS(=O)(=O)c1ccc(Nc2cc(-c3cccc(O)c3)[nH]n2)cc1", "GI50": "> 25", "TGI": "> 25"}, {"smiles": "COc1c(CC=C(C)C)c(O)c(C(CC(C)C)c2c(O)c3c(c(C(C)=O)c2O)OC(C(C)(C)O)C3)c(O)c1C(C)=O", "note": "(configuration not stated)", "TGI": "> 12.5"}, {"smiles": "CCOC(=O)C1Cc2c(cc3c4c(cccc24)N(C(C)=O)C3)N(C)C1", "note": "(configuration not stated)", "TGI": "> 100"}, {"smiles": "Cc1cccc(N(C)C(=O)[C@@H]2[C@H](O)CCN2c2nc(C)cc(C(F)(F)F)c2C#N)c1", "GI50": 27, "TGI": "> 100"}, {"smiles": "C=CCn1c(-c2ccc([N+](=O)[O-])cc2)cs/c1=N\\C(P(=O)(O)O)P(=O)(O)O", "TGI": "> 100"}, {"smiles": "Cc1ccccc1N=Nc1c(O)c(S(=O)(=O)O)cc2cc(S(=O)(=O)O)ccc12", "TGI": "> 100"}, {"smiles": "O=C1NC(Cc2ccc(O)cc2)C(=O)N2CCCC12", "note": "(configuration not stated)", "TGI": "> 100"}, {"smiles": "Cn1c(=O)[nH]c2nncnc2c1=O", "TGI": "> 459"}]}]}
